The values that follow come from PubChem BioAssay AID1159614 (National Center for Advancing Translational Sciences (NCATS), 2016).

In all, about 45,000 compounds went through this assay and about 65 (0.1%) were called active. Calls follow the shape of the dose curve; as a rule, active = well fitted activation curve with a large enough effect; inconclusive = small, poorly fitted or top-dose-only effect; inactive = no such curve, though single readings can be large or run the other way. The list shows a part of the results.

The target of the experiment is Galactocerebrosidase (Homo sapiens) (UniProt P54803). In words: A Novel Cell-Based Assay to Identify Small Molecules for B -Galactocerebrosidase. Also: 0% is about no effect; nearly all actives have a fitted effect of over 65% in size. The conditions noted are these: 145M-Twi-hGALC-G270D cells (Twitcher mouse brain line with human GALC G270D), HMU-beta-Gal fluorescence, 48 h; series mostly up to 57.5 µM; activation: at the top concentration. The text has this: Lysosomal storage diseases (LSDs) are caused by genetic mutations in genes encoding proteins important for normal lysosomal function. Globoid cell leukodystrophy (GLD), mostly known as Krabbe disease, is a prototype of the neurological LSDs caused by deficiency of beta-galactocerebrosidase (GALC). In brain specimens of GLD patients, psychosine levels are substantially elevated. At elevated concentrations, psychosine becomes cytotoxic to neuronal cells, particularly to oligodendrocytes (OLG), neural cells responsible for myelin formation. Therefore, the biochemical disturbances in GLD are manifested by different degrees of brain demyelination resulting in a broad spectrum of neurological manifestations. Most of the FDA-approved therapies are based on enzyme replacement therapeutic (ERT) agents, which treat non-neurological symptoms of Gaucher disease, Fabry disease, few mucopolysaccharidoses and Pompe disease. Unfortunately, in GLD, a primarily neurological LSD, ERT agents, as large molecular weight molecules unable to cross the blood-brain barrier, which makes this an inefficacious therapeutic approach. In GLD, increasing the residual GALC activity just above the critical threshold (~10% of wild type enzymatic activity), the cytotoxic levels of psychosine will be reduced, avoiding the OLGs apoptosis and the subsequent demyelination process. This will translate in disease stabilization and amelioration of GLD patient symptoms.
Chain of UniProt P54803 (P54803 whole entry, looked up): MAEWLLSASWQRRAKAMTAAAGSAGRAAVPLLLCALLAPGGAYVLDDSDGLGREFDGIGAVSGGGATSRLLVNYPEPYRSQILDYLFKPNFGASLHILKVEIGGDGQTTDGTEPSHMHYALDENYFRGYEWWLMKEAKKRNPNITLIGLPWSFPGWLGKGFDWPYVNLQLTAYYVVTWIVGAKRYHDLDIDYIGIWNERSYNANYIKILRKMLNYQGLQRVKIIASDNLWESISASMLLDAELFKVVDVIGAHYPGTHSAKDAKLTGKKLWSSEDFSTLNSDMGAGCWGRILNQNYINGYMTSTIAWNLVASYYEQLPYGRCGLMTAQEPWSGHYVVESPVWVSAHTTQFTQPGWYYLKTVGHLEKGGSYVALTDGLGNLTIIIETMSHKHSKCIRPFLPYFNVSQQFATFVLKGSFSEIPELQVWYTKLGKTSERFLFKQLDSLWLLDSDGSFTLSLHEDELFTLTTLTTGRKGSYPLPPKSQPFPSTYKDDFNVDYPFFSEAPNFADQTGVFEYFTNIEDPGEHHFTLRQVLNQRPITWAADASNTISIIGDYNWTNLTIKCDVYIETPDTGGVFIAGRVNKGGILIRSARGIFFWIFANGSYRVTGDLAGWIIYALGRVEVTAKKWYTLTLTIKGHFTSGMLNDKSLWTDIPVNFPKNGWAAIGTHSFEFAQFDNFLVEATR
A cell-based assay in 1,536-well plate format was developed to implement a quantitative high-throughput screening (qHTS) assay using GLD-disease relevant cells to identify small molecules that produce enhancements of the residual enzymatic activity levels of mutants GALC found and prevalent in GLD patients. Compounds that are active may therefore have some therapeutic application for GLD. After the treatment of live cells for a determined period, using a fluorescent GALC specific substrate, the mutant residual GALC activity is measured. This cell-based qTHS assay was used to screen part of the MLPCN library for small molecule able to increase the mutant GALC enzymatic activity. In this assay, increased fluorescent signal corresponds to enhanced levels of mutant GALC residual enzymatic activity. Activation is the desired outcome for this assay.
NIH Chemical Genomics Center [NCGC]
NIH Molecular Libraries Probe Centers Network [MLPCN]
Assay Submitter (PI): Gustavo Maegawa MD,PhD, University of Florida, Gainesville, FL
2)#Two cell lines were established for the assay: 145M-Twi-hGALC-G270D (brain-derived Twitcher cell line stably expressing human GALC-G270D) and 145M-Twi-hGALC-WT (same 145M-Twi stably expressing human GALC wild type). The Twitcher is the murine C57B/6 model for GLD with naturally occurring homozygous nonsense GALC mutation. The 145M-Twi cell line was established at Maegawa lab (Ribbens J et al 2014).
a.#Media: DMEM/F12 (1:1) with 10% fetal bovine-serum (FBS) with penicillin/streptomycin (PS-1X - 100 I.U./mL of penicillin+100 ug/mL of streptomycin).
b.#The 6-Hexadecanoylamino-4-methylumbelliferyl-b-D-galactoside (HMU-B-gal) substrate was prepared as per Wiederschain et al 1992. Using 20-mL borosilicate tubes, 2.20 mg of HMU-b-Gal was added in each tube to prepare substrate-film with a final air-nitrogen stream evaporation to remove all diluent solvents.
c.#The HMUb-Gal substrate buffer consists of 0.2 M Na2HPO4 (sodium phosphate dibasic)/ 0.1 M Citric Acid with the pH adjusted to 5.2 using HCl. Sodium Azide at 0.02% and Sodium Taurocholate (NaTC) at 1 mg/mL were added to this substrate buffer.
d.#The HMU-b-Gal stopping buffer consist of 0.5 M NaHCO3 (sodium bicarbonate) /0.5 M Na2CO3 (sodium carbonate). […] Triton X-100 at 0.25% was added.
4)#Preparation of HMU-b-Gal substrate tubes
Adding 18.6 mL of the HMUb-Gal substrate buffer to each 20-mL tube (2.20 mg of HMU-b-Gal) will reach a concentration of 0.2 mM. Vortex well the tube until the solution is fully homogenized (clear cloudy solution). […]
For `Brc1ccc(-c2csc(-c3nc(-c4ccc(Br)s4)cs3)n2)cc1`, the “activation” value was inactive: -12.1%.

Consider `CCOc1ccc(N(CC(=O)NCc2ccc(C)cc2)S(=O)(=O)c2c(C)[nH]c(=O)[nH]c2=O)cc1`, for which the “activation” value is inactive: -14.5%.

As for `CCOc1ccc(NC(=O)CSc2oc(-c3ccco3)nc2S(=O)(=O)c2ccc(Cl)cc2)cc1`, the “activation” value is inactive: 0.972%.

On to `O=C(Nc1ccccc1C(F)(F)F)N1Cc2ccccc2Oc2ncccc21`, for which the “activation” value was inactive: -12.5%.

Regarding `COc1cccc(C2C=C(c3ccc(C)cc3)Nc3c(C(=O)Nc4ccc(F)cc4)cnn32)c1OC` (stereo not drawn), the “activation” value was inactive: -17.6%.

As for `CC(CCc1ccccc1)NC(=O)Cn1ncc2c3ccccc3n(Cc3cccc(Cl)c3)c2c1=O` (stereo not drawn), the “activation” value was inactive: -12.3%.

`COc1ccc(CN(C(=O)c2ccc(OCC(C)C)cc2)C2CCS(=O)(=O)C2)cc1` (stereo not drawn): the “activation” value was inactive: -8.69%.

In the case of `CC(NC(=O)c1ccc(Cn2c(SCc3ccccc3)nc3cccnc32)cc1)c1ccccc1` (stereo not drawn), the “activation” value is inactive: -18.6%.

On to `CCc1ccc(NC(=O)c2sc3nc(-c4ccccc4)cn3c2C)cc1`, for which the “activation” value is inactive: -13.2%.

For the compound `CCN1CCN(C(c2cccc(OC)c2)c2c(O)cc(C)n(Cc3ccco3)c2=O)CC1` (stereo not drawn), the “activation” value was inactive: -23.1%.

Regarding `CCN(CC)CCNC(=O)Cn1cnc2sc(C)c(S(=O)(=O)N3CCN(c4ccccc4OC)CC3)c2c1=O`, the “activation” value was inactive: -10.2%.

Consider `COc1ccc(N2CCN(C(=O)Nc3ccc(Cl)cc3)CC2)cc1`, for which the “activation” value is inactive: -16.6%.

Regarding `CCc1cccc(-n2nnc(-c3nc(-c4ccc5c(c4)OCO5)no3)c2C)c1`, the “activation” value is inactive: -15.4%.

For `Cc1cccc(C(=O)NCc2nnc(SCC(=O)Nc3ccccc3F)n2-c2ccccc2)c1`, the “activation” value is inactive: -17.4%.

Turning to `COc1ccc(NC(=O)CSc2nc(-c3ccccc3)c3ccccc3n2)cc1`, the “activation” value was inactive: -13.6%.

As for `CCOc1ccc(-c2n[nH]c3c2C(c2cccs2)N(c2ccc(Br)cc2)C3=O)cc1` (stereo not drawn), the “activation” value was inactive: -26.1%.

As to `CCOC(=O)c1cc(-c2ccc(OC)cc2)n(CCC(=O)NC2CCC(C)CC2)c1C` (stereo not drawn), the “activation” value is inactive: -16.8%.

`COc1ccc(S(=O)(=O)N2CCN(C(=O)c3cc(-c4ccc(Br)cc4)n[nH]3)CC2)cc1OC`: the “activation” value was inactive: -40.2%.

Take `CC(=O)N1c2ccc(S(=O)(=O)NCC3CCC(C(=O)Nc4cccc(F)c4)CC3)cc2CC1C` (stereo not drawn): the “activation” value was inactive: 21.9%.

Regarding `CCOc1ccc(S(=O)(=O)NCCc2sc(-c3ccc(C)cc3)nc2C)cc1`, the “activation” value is inactive: -20%.

For `COc1cccc(CNC(=O)Cn2ccc3cc(S(=O)(=O)N4CCCC4)ccc32)c1`, the “activation” value was inactive: -11%.

Regarding `CCOc1ccccc1N1CC(c2nc3ccccc3n2CCCOc2ccccc2OC)CC1=O` (stereo not drawn), the “activation” value is inactive: -13.7%.

In the case of `CCc1ccccc1N1CC(c2nc3ccccc3n2Cc2cccc(C)c2)CC1=O` (stereo not drawn), the “activation” value was inactive: 8.21%.

On to `O=C(Nc1sc2c(c1C(=O)NCc1ccccc1)CCCC2)c1cc(=O)c2cc(Cl)ccc2o1`, for which the “activation” value was inactive: -8.62%.

On to `N#Cc1ccccc1Cn1nnc2c(=O)[nH]c(C3CCCN(S(=O)(=O)c4ccc(F)cc4)C3)nc21` (stereo not drawn), for which the “activation” value is inactive: -8.2%.

Regarding `O=C(Nc1nc2nc(-c3ccccc3)cc(=O)n2[nH]1)c1ccc(F)cc1`, the “activation” value is inactive: -9.15%.

In the case of `O=C(Nc1cccnc1Cl)c1cc(-c2ccc(Cl)cc2)on1`, the “activation” value was inactive: -5.1%.

`O=C(NCc1ccccc1)C1CCC(CNS(=O)(=O)c2ccc(Br)s2)CC1` (stereo not drawn): the “activation” value is inactive: -1.16%.

As to `COc1cc(NC(=O)Cn2c(=O)n(C(C)C)c(=O)c3oc4ccccc4c32)cc(OC)c1`, the “activation” value is inactive: -13.8%.

`CC1CCc2nn(CC(=O)Nc3cccc(C(F)(F)F)c3)c(=O)cc2C1` (stereo not drawn): the “activation” value is inactive: -10.8%.

With `CNC(=O)c1cc2n(n1)CCCN(Cc1ccc(F)cc1)C2=O`, the “activation” value is inactive: -3.52%.

Turning to `O=C1C(c2ccc(F)cc2)N(CCc2ccccc2)C(=O)CN1C1CCCCC1` (stereo not drawn), the “activation” value is inactive: -0.677%.

For `CC(C)c1ccc(C(=O)Nc2cccc3cccnc23)cc1`, the “activation” value is inactive: -8.58%.

With `COc1ccc(CN(C(=O)Nc2ccc(C)c(F)c2)C2CCN(C(C)=O)CC2)cc1`, the “activation” value is inactive: -10.6%.

Regarding `Cc1ccccc1C(=O)Nc1nnc(SCc2cc(=O)c3c(C)ccc(C)c3[nH]2)s1`, the “activation” value is inactive: 19.3%.

For `CCc1ccc(NC(=O)Cn2nnc(C(=O)NCc3ccco3)c2N)cc1`, the “activation” value is inactive: -14.1%.

On to `COc1cccc(COC(=O)c2ccc(-c3nnn(Cc4ccccc4)n3)cc2)c1`, for which the “activation” value is inactive: -9.41%.

Take `CC1CCN(S(=O)(=O)c2cc(C(=O)NCc3ccc(F)cc3)n(C)c2)CC1`: the “activation” value is inactive: -4.57%.

As to `CCC1CN(C(=O)N2CCC(C(=O)NCCOC)CC2)c2ccccc2O1` (stereo not drawn), the “activation” value is inactive: -13.2%.

For `Cc1ccc(NC(=O)CCS(=O)(=O)c2ccc3nc(C)sc3c2)cc1`, the “activation” value was inactive: -8.02%.

Consider `CCOc1ccc(CCNS(=O)(=O)c2c(C)nc3sc(C)cn3c2=O)cc1OCC`, for which the “activation” value is inactive: -9.8%.

As for `CC(=O)c1ccc(NC(=O)CCc2c(C)nn(-c3ccc4nncn4n3)c2C)cc1`, the “activation” value is inactive: 3.89%.

In the case of `CSc1ccc(CCNC(=O)c2cc3n(n2)CCCN(Cc2ccc(C)cc2)C3=O)cc1`, the “activation” value was inactive: -26.4%.

Regarding `CCc1ccc(NC(=O)C2CCCN(S(=O)(=O)c3c(C)[nH]c(=O)[nH]c3=O)C2)cc1` (stereo not drawn), the “activation” value is inactive: 5.19%.

Turning to `CC(C)c1ccc(NS(=O)(=O)c2ccc3[nH]c(=O)ccc3c2)cc1`, the “activation” value was inactive: -10.7%.

Consider `COC(=O)c1ccc(Cn2nc(-c3ccc(C)c(C)c3)ccc2=O)cc1`, for which the “activation” value is inactive: -4.76%.

On to `COc1ccc(Cl)cc1Nc1ncnc2c1nc1n2CCCC1`, for which the “activation” value was inactive: 4.94%.

Regarding `COCCc1nn2c(=O)cc(COC(=O)COc3ccccc3C)nc2s1`, the “activation” value was inactive: 13.4%.
